Measured values from the supplement of paper PMC3334620.
Whole data set: some 33,000 sequences, median “E-score (-0.5 to 0.5)” near -0.017, cut for the highest 2% near 0.3. The list shows a part of the results.

The sequences below were run against T1, Sut1 (UniProt P53032) (assay: PBM E-score (8-mer binding enrichment) (E-score (-0.5 to 0.5)); higher = stronger / more preferred TF binding; most listed sequences are background and not binding sites). Settings: protein concentration: 200 nM; construct: GST-full length.
T1 sequence: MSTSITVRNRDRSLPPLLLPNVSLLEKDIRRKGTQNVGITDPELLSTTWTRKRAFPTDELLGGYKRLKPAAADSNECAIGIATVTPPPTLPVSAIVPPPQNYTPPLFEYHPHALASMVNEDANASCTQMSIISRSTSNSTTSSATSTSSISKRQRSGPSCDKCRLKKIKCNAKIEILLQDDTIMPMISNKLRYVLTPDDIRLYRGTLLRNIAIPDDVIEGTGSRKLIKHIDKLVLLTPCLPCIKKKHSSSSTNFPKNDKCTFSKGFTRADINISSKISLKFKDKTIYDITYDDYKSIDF
Method in brief: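 Yeast transcription factors carrying a GST tag, as full-length proteins or DNA-binding domains, were produced by PURExpress in vitro transcription/translation. About 100-200 nM protein was applied to universal all-10-mer Agilent arrays, double-stranded by primer extension on fresh or once-stripped slides. Bound protein was detected with fluorescent anti-GST, and scans were normalised with masliner. The Universal PBM Analysis Suite gave each ungapped eight-base word, pooled with its reverse complement, an E-score, a modified Wilcoxon-Mann-Whitney statistic.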

| Sequence | PBM E-score |
| --- | --- |
| ACTGTTCA | -0.0168 |
| AGGTCCAT | 0.0646 |
| CACTCACA | -0.118 |
| TCGCTAAA | -0.0213 |
| AACGCAGC | -0.0953 |
| AAGGTAGT | -0.0208 |
| AAGCGACA | -0.123 |
| CGCTTGAG | 0.0364 |
| AGGAACTC | 0.0307 |
| GACACATA | 0.133 |
| AGTAACGA | 0.196 |
| AATTTCGT | 0.168 |
| AGATAAAA | 0.237 |
| ACGTATGG | -0.0677 |
| ACTGTCTA | -0.0775 |
| ACTTCAAG | 0.0849 |
| AGGGCAAG | -0.0991 |
| ATACGATG | 0.206 |
| AACAGGGG | -0.102 |
| GCTTCGCA | -0.197 |
| GAGCGAGC | -0.127 |
| ATGAACAC | 0.0355 |
| ACGAAAAT | 0.177 |
| GCAAAGAA | 0.0524 |
| AAAAATTT | 0.281 |

| Sequence | PBM E-score |
| --- | --- |
| CACAGCCC | -0.344 |
| GTGAAGGA | -0.00442 |
| CAAACCGA | -0.0148 |
| ACAATAGG | 0.13 |
| ACCAGAGG | -0.258 |
| AATGCATA | 0.0656 |
| AATAAAGA | 0.262 |
| AGCGGTAA | 0.0362 |
| ACTATACG | 0.122 |
| AGTTAGCA | 0.0541 |
| ATAGGCAC | -0.198 |
| ATCGTGGG | -0.0771 |
| AGCCCGAT | 0.0163 |
| TGTCCCAA | -0.0997 |
| CGTATCTC | 0.093 |
| ATAGTCTG | -0.0537 |
| AGTGCGAG | -0.088 |
| AGAGGCCA | -0.167 |
| GACTCCTC | 0.0705 |
| CCGGGATC | -0.0467 |
| TCGTCTAA | -0.0384 |
| GACAGGGC | -0.368 |
| ATAGCGAG | 0.068 |
| GACTGGGA | -0.0219 |
| AGGTCAAA | -0.0588 |

| Sequence | PBM E-score |
| --- | --- |
| CTCGTCGC | -0.198 |
| ACTCAGCA | -0.138 |
| CTCCCAAC | -0.209 |
| AAGAGTGA | -0.0722 |
| TCTCCAGA | -0.212 |
| CTACCAAA | 0.138 |
| AGAACACT | 0.00366 |
| GCGTCATA | 0.0968 |
| GGTTGCTA | -0.0336 |
| ACCTGTGC | -0.232 |
| GTCTTCGA | -0.00848 |
| CGAGTGAG | 0.0764 |
| AGAAAGTC | 0.232 |
| ATAAATCG | 0.2 |
| GAGTCGAC | 0.0275 |
| ACATAGTC | 0.114 |
| AACCCGCA | -0.0898 |
| AGGCTTGG | -0.148 |
| CATACAAG | -0.00318 |
| CCGGAAAC | 0.245 |
| GGTCAGAA | 0.0293 |
| GGAATTAA | 0.285 |
| ATGTGTTG | 0.092 |
| CTCCGAAC | 0.468 |
| CCATGAGC | -0.221 |

| Sequence | PBM E-score |
| --- | --- |
| ACTCTCAG | -0.0536 |
| GACAAGCC | -0.141 |
| CGTCGACA | -0.139 |
| ACCCTGCT | -0.299 |
| CTTTCCTA | -0.147 |
| AGGTTGGA | 0.0312 |
| CTGTTGAA | 0.127 |
| ATCGTGTG | 0.039 |
| ACTCAAGG | -0.0836 |
| GTACAAAA | 0.219 |
| TACCCCGA | 0.324 |
| CAACGTTC | -0.0199 |
| ATTTCACC | 0.00801 |
| CGTCAATC | -0.0752 |
| CAGTTGTA | 0.00162 |
| ATATCCCA | 0.108 |
| AGAAGTAG | -0.127 |
| ATTTTGGC | 0.0477 |
| ACAGGCCA | -0.0945 |
| ACTGGTTA | 0.134 |
| ACTTTAAC | 0.0923 |
| AGTGTAAG | 0.0646 |
| CCCTAAGG | -0.15 |
| ACAAGGGC | -0.184 |
| AGCGGAGA | 0.325 |

| Sequence | PBM E-score |
| --- | --- |
| GATTGCGC | 0.0894 |
| TCAGTCAA | -0.0126 |
| ACAGCCAA | 0.0381 |
| GGCGACAA | -0.163 |
| CGCGGAAC | 0.118 |
| CAGGGCGC | -0.275 |
| AATCTCCT | 0.147 |
| AGGCGACG | -0.0162 |
| GGGGACCC | -0.275 |
| CCCGTGAC | -0.156 |
| ACTATATC | 0.209 |
| GTCGGATA | 0.143 |
| CGAGGCCA | 0.0156 |
| ATGGAGAG | 0.0475 |
| CATAGCTA | -0.182 |
| ATGCAAAT | 0.0646 |
| ATGAGTGC | -0.0473 |
| CTAAAAAA | 0.233 |
| ACAACAGG | -0.131 |
| GATTTTAA | 0.253 |
| AACCATCA | 0.209 |
| ATTCATAC | 0.21 |
| AGTACTAC | 0.155 |
| GCTCTACA | -0.121 |
| GGCTGGCA | -0.337 |

| Sequence | PBM E-score |
| --- | --- |
| AGAGAAGC | -0.0428 |
| AAAATCAG | 0.0609 |
| CTCTTATC | 0.284 |
| CTTATCAA | 0.192 |
| ATGGATTG | 0.139 |
| CAAGGTAA | 0.0319 |
| CATACCGG | 0.00242 |
| ATATTCAT | 0.187 |
| ACGATTGG | 0.0321 |
| CCATCTCG | -0.104 |
| CTGGTGTA | -0.121 |
| ATGCCTTC | -0.251 |
| AGGGAGCG | -0.26 |
| AGCGGTTA | -0.0642 |
| ACACCTAC | -0.0558 |
| ACCGACCA | -0.0782 |
| ATCAAGGA | 0.0319 |
| AAAGATCA | 0.0373 |
| CCTTTCCC | -0.0285 |
| ATGTAAAA | 0.218 |
| CCGTTGAC | -0.147 |
| ACCGTCTC | -0.0585 |
| CGCTACAG | 0.00067 |
| AAAGCGAT | 0.101 |
| ATGCTACC | 0.0202 |

| Sequence | PBM E-score |
| --- | --- |
| TCCGGTAA | 0.384 |
| GAGAAAAA | 0.252 |
| CACCAAGG | -0.12 |
| GGAAAAAA | 0.229 |
| CAAGACGC | -0.124 |
| ATTCGATA | 0.264 |
| AGAAGCAT | 0.128 |
| AATACCTA | 0.223 |
| TCAAGAAA | 0.316 |
| CGTAATGC | 0.0921 |
| AGGAAAAA | 0.11 |
| ACCCTAAA | -0.0342 |
| TATTAGAA | 0.239 |
| GCCGCAAA | -0.078 |
| GTATACTA | -0.155 |
| ACCATGGG | -0.238 |
| GCAGGTAC | -0.132 |
| CCCATGGG | -0.2 |
| ACGATTTC | 0.155 |
| AGATCGAT | -0.104 |
| AGAAAATC | 0.113 |
| CAGCGGGA | -0.267 |
